B1: TNFRII-Fc (Enbrel) (Fc fusion)
chain: LPAQVAFTPYAPEPGSTCRLREYYDQTAQMCCSKCSPGQHAKVFCTKTSDTVCDSCEDSTYTQLWNWVPECLSCGSRCSSDQVETQACTREQNRICTCRPGWYCALSKQEGCRLCAPLRKCRPGFGVARPGTETSDVVCKPCAPGTFSNTTSSTDICRPHQICNVVAIPGNASMDAVCTSTSPTRSMAPGAVHLPQPVSTRSQHTQPTPEPSTAPSTSFLLPMGPSPPAEGSTGD[human IgG1 Fc left out]
notes: also called marketed TNFRII-Fc
B2: TNFRII-Fc-IL-1ra (Fc fusion)
chain: LPAQVAFTPYAPEPGSTCRLREYYDQTAQMCCSKCSPGQHAKVFCTKTSDTVCDSCEDSTYTQLWNWVPECLSCGSRCSSDQVETQACTREQNRICTCRPGWYCALSKQEGCRLCAPLRKCRPGFGVARPGTETSDVVCKPCAPGTFSNTTSSTDICRPHQICNVVAIPGNASMDAVCTSTSPTRSMAPGAVHLPQPVSTRSQHTQPTPEPSTAPSTSFLLPMGPSPPAEGSTGD[about 400 residues with a human IgG1 Fc left out]

Biological target: human TNF-alpha (human, UniProt P01375 in part)
Test: cell-based or functional assay

Sequence of human TNF-alpha (P01375 77-233 limits assumed): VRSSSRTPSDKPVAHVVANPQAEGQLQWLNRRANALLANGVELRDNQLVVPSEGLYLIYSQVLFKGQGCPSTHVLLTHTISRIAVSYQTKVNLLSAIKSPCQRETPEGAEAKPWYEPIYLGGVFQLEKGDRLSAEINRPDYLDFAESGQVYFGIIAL

Binder	EC50, neutralization of human TNF-alpha (500 pg/ml) killing of L929 cells
B1	3 to 4 ng/mL
B2	10 ng/mL

— patent publication US20080292628A1 (AMPROTEIN, published 2008)
